Measurements from PubChem BioAssay (NCI).
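The compound was tested at five concentrations on cells cultured in 96-well plates, with a 48-hour exposure period. GI50 is the concentration that inhibits growth by half. TGI marks complete inhibition of growth.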

Test system: NCI-H322M lung
Assay: DTP human tumour cell line panel, 48 h

| Structure (SMILES) | TGI [µM] | GI50 [µM] |
| --- | --- | --- |
| O=C(O)C1CC(C2CCCCN2)CN2CCCCC12 (stereo not drawn) | > 100 | – |
| O=c1c2cccc(F)c2sc2c(NCCCNCCO)nc3ccccc3c12 | 3.01 | 1.59 |
| COc1ccc(/C=C2\C[C@H]3[C@@H]4CC=C5C[C@@H](OC(C)=O)CC[C@]5(C)[C@H]4CC[C@]3(C)C2=O)cc1OC | > 100 | – |
| CC(=O)Nc1ncc2c(n1)-c1ccccc1OC2c1ccccc1 (stereo not drawn) | > 100 | – |
| CC1OC(OC2C(OC(=O)[C@]34CCC(C)(C)CC3C3=CCC5[C@@]6(C)C[C@H](O)[C@H](OC7OC(COC8OC(CO)C(O)C(O)C8O)C(O)C(O)C7O)[C@@](C)(C(=O)O)C6CC[C@@]5(C)C3(C)CC4)OCC(O)C2O)C(O)C(O)C1OC1OCC(O)C(O)C1O (stereo partly drawn) | > 100 | – |
| C=C[C@]1(C)CC(=O)C(C(C)C=O)[C@]12C(=O)Oc1cccc(C)c1C2=O (stereo partly drawn) | 34.7 | – |
| CC(C)(C)CNCCCNc1ccc(Cl)cc1 | > 100 | – |
